# Results from the supplement of paper PMC8728848.
# The list shows a part of the results.
# Assays:
# Test in all cases: glycan array binding signal (z-score within array); higher = stronger binding
# Conditions in all cases: glycan notation: IUPAC condensed, linker removed
# [1] = target: Man(a1-2)Man(a1-3)[Man(a1-2)Man(a1-6)]Man(a1-6)[Man(a1-2)Man(a1-2)Man(a1-3)]Man
# Method in brief: (§1)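 The binding signal is a Z-score computed within each array and averaged over linkers. Arrays of the same protein sequence at different concentrations or buffers were also averaged together. Data originate from 3228 arrays in the Consortium for Functional Glycomics database, kept only where the protein sequence was available.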
# [2] = target: Man(a1-2)Man(a1-3)[Man(a1-2)Man(a1-6)]Man(a1-6)[Man(a1-2)Man(a1-2)Man(a1-3)]Man(b1-4)GlcNAc(b1-4)GlcNAc
# Method in brief: as §1
# [3] = target: Man(a1-2)Man(a1-3)[Man(a1-3)[Man(a1-6)]Man(a1-6)]Man(b1-4)GlcNAc(b1-4)GlcNAc
# Method in brief: as §1
# [4] = target: Man(a1-2)Man(a1-3)[Man(a1-6)]Man(a1-6)[Man(a1-2)Man(a1-3)]Man(b1-4)GlcNAc(b1-4)GlcNAc
# Method in brief: as §1
# [5] = target: Man(a1-2)Man(a1-6)[Man(a1-3)]Man(a1-6)[Man(a1-2)Man(a1-2)Man(a1-3)]Man
# Method in brief: as §1
# [6] = target: Man(a1-2)Man(a1-6)[Man(a1-3)]Man(a1-6)[Man(a1-2)Man(a1-2)Man(a1-3)]Man(b1-4)GlcNAc(b1-4)GlcNAc
# Method in brief: as §1
# Man(a1-3)[Man(a1-6)]Man = target: Man(a1-3)[Man(a1-6)]Man
# Method in brief: as §1
# [7] = target: Man(a1-3)[Man(a1-6)]Man(a1-6)[Man(a1-2)Man(a1-3)]Man(b1-4)GlcNAc(b1-4)GlcNAc
# Method in brief: as §1
# [8] = target: Man(a1-3)[Man(a1-6)]Man(a1-6)[Man(a1-3)]Man
# Method in brief: as §1
# [9] = target: Man(a1-3)[Man(a1-6)]Man(a1-6)[Man(a1-3)]Man(b1-4)GlcNAc(b1-4)GlcNAc
# Method in brief: as §1
# [10] = target: Man(a1-3)[Man(a1-6)]Man(b1-4)GlcNAc(b1-4)GlcNAc
# Method in brief: as §1
# [11] = target: Man(a1-3)[Man(a1-6)]Man(b1-4)GlcNAc(b1-4)[Fuc(a1-6)]GlcNAc
# Method in brief: as §1
# Man(a1-6)Man = target: Man(a1-6)Man
# Method in brief: as §1
# Man(b1-4)GlcNAc = target: Man(b1-4)GlcNAc
# Method in brief: as §1
# MurNAc(b1-4)GlcNAc = target: MurNAc(b1-4)GlcNAc
# Method in brief: as §1
# Neu5Ac(a2-3)Gal = target: Neu5Ac(a2-3)Gal
# Method in brief: as §1
# [12] = target: Neu5Ac(a2-3)Gal(b1-3)GalNAc
# Method in brief: as §1
# [13] = target: Neu5Ac(a2-3)Gal(b1-3)GalNAc(b1-3)Gal(a1-4)Gal(b1-4)Glc
# Method in brief: as §1
# [14] = target: Neu5Ac(a2-3)Gal(b1-3)GalNAc(b1-4)Gal(b1-4)Glc
# Method in brief: as §1
# [15] = target: Neu5Ac(a2-3)Gal(b1-3)GalNAc(b1-4)[Neu5Ac(a2-3)]Gal(b1-4)Glc
# Method in brief: as §1
# [16] = target: Neu5Ac(a2-3)Gal(b1-3)GalNAc(b1-4)[Neu5Ac(a2-8)Neu5Ac(a2-3)]Gal(b1-4)Glc
# Method in brief: as §1
# [17] = target: Neu5Ac(a2-3)Gal(b1-3)GalNAc6S
# Method in brief: as §1
# [18] = target: Neu5Ac(a2-3)Gal(b1-3)GlcNAc
# Method in brief: as §1
# [19] = target: Neu5Ac(a2-3)Gal(b1-3)GlcNAc(b1-2)Man
# Method in brief: as §1
# [20] = target: Neu5Ac(a2-3)Gal(b1-3)GlcNAc(b1-2)Man(a1-3)[GlcNAc(b1-4)][Neu5Ac(a2-3)Gal(b1-3)GlcNAc(b1-2)Man(a1-6)]Man(b1-4)GlcNAc(b1-4)GlcNAc
# Method in brief: as §1
# [21] = target: Neu5Ac(a2-3)Gal(b1-3)GlcNAc(b1-2)Man(a1-3)[Neu5Ac(a2-3)Gal(b1-3)GlcNAc(b1-2)Man(a1-6)]Man(b1-4)GlcNAc(b1-4)GlcNAc
# Method in brief: as §1
# [22] = target: Neu5Ac(a2-3)Gal(b1-3)GlcNAc(b1-2)[Neu5Ac(a2-3)Gal(b1-3)GlcNAc(b1-4)]Man(a1-6)[Neu5Ac(a2-3)Gal(b1-3)GlcNAc(b1-2)Man(a1-3)]Man(b1-4)GlcNAc(b1-4)GlcNAc
# Method in brief: as §1
# [23] = target: Neu5Ac(a2-3)Gal(b1-3)GlcNAc(b1-3)Gal(b1-3)GlcNAc
# Method in brief: as §1
# [24] = target: Neu5Ac(a2-3)Gal(b1-3)GlcNAc(b1-3)Gal(b1-4)GlcNAc
# Method in brief: as §1
# [25] = target: Neu5Ac(a2-3)Gal(b1-3)GlcNAc(b1-3)GalNAc
# Method in brief: as §1
# [26] = target: Neu5Ac(a2-3)Gal(b1-3)GlcNAc(b1-6)GalNAc
# Method in brief: as §1
# [27] = target: Neu5Ac(a2-3)Gal(b1-3)GlcNAc6S
# Method in brief: as §1
# [28] = target: Neu5Ac(a2-3)Gal(b1-3)[Fuc(a1-4)]GlcNAc
# Method in brief: as §1
# [29] = target: Neu5Ac(a2-3)Gal(b1-3)[Fuc(a1-4)]GlcNAc(b1-3)Gal(b1-3)[Fuc(a1-4)]GlcNAc
# Method in brief: as §1
# [30] = target: Neu5Ac(a2-3)Gal(b1-3)[Fuc(a1-4)]GlcNAc(b1-3)Gal(b1-4)[Fuc(a1-3)]GlcNAc
# Method in brief: as §1
# [31] = target: Neu5Ac(a2-3)Gal(b1-3)[GlcNAc(b1-6)]GalNAc
# Method in brief: as §1
# [32] = target: Neu5Ac(a2-3)Gal(b1-3)[Neu5Ac(a2-3)Gal(b1-4)]GlcNAc
# Method in brief: as §1
# [33] = target: Neu5Ac(a2-3)Gal(b1-3)[Neu5Ac(a2-6)]GalNAc
# Method in brief: as §1
# [34] = target: Neu5Ac(a2-3)Gal(b1-3)[Neu5Ac(a2-6)]GlcNAc(b1-3)[Fuc(a1-3)[Gal(b1-4)]GlcNAc(b1-6)]Gal(b1-4)Glc
# Method in brief: as §1
# [35] = target: Neu5Ac(a2-3)Gal(b1-3)]Neu5Ac(a2-3)Gal(b1-4)]GlcNAc
# Method in brief: as §1
# Neu5Ac(a2-3)Gal(b1-4)Glc = target: Neu5Ac(a2-3)Gal(b1-4)Glc
# Method in brief: as §1
# [36] = target: Neu5Ac(a2-3)Gal(b1-4)GlcNAc
# Method in brief: as §1
# [37] = target: Neu5Ac(a2-3)Gal(b1-4)GlcNAc(b1-2)Man
# Method in brief: as §1
# [38] = target: Neu5Ac(a2-3)Gal(b1-4)GlcNAc(b1-2)Man(a1-3)[GlcNAc(b1-4)][Neu5Ac(a2-3)Gal(b1-4)GlcNAc(b1-2)Man(a1-6)]Man(b1-4)GlcNAc(b1-4)GlcNAc
# Method in brief: as §1
# [39] = target: Neu5Ac(a2-3)Gal(b1-4)GlcNAc(b1-2)Man(a1-3)[Neu5Ac(a2-3)Gal(b1-4)GlcNAc(b1-2)Man(a1-6)]Man(b1-4)GlcNAc(b1-4)GlcNAc
# Method in brief: as §1
binder,measurement,setting,value
Epa15 (Candida glabrata) (protein) MGSSHHHHHHSSGLVPRGSHMASDPTTFPLGCSPEFTKTKKGLSMELYRYDYLPPGSYPCWDSAYLNPSYPRTGYKAKKLIATVDGVSGDINFKFNPKFGCKAIPDYLPSNFNYHEPITITNFTMILYGYFMPKTTAFHTFYVTADDLLFMNFGAGNAFDCCRREETADKFGNYAAYSVWGKKSLKNELTVYLHTGVYYPIRLFYNNRDYIAQLDIRFKTEHSNAIITNFTDYFYSVDDSSLGCPGLI,glycan array binding signal (z-score),[1],-0.495
same,glycan array binding signal (z-score),[2],-0.458
same,glycan array binding signal (z-score),[3],-0.277
same,glycan array binding signal (z-score),[4],-0.12
same,glycan array binding signal (z-score),[5],-0.637
same,glycan array binding signal (z-score),[6],-0.24
same,glycan array binding signal (z-score),Man(a1-3)[Man(a1-6)]Man,-0.303
same,glycan array binding signal (z-score),[7],0.517
same,glycan array binding signal (z-score),[8],-0.406
same,glycan array binding signal (z-score),[9],-0.333
same,glycan array binding signal (z-score),[10],-0.452
same,glycan array binding signal (z-score),[11],0.402
same,glycan array binding signal (z-score),Man(a1-6)Man,-0.374
same,glycan array binding signal (z-score),Man(b1-4)GlcNAc,-0.32
same,glycan array binding signal (z-score),MurNAc(b1-4)GlcNAc,-0.569
same,glycan array binding signal (z-score),Neu5Ac(a2-3)Gal,-0.522
same,glycan array binding signal (z-score),[12],-0.48
same,glycan array binding signal (z-score),[13],-0.457
same,glycan array binding signal (z-score),[14],-0.484
same,glycan array binding signal (z-score),[15],-0.467
same,glycan array binding signal (z-score),[16],-0.493
same,glycan array binding signal (z-score),[17],-0.387
same,glycan array binding signal (z-score),[18],-0.306
same,glycan array binding signal (z-score),[19],-0.686
same,glycan array binding signal (z-score),[20],0.145
same,glycan array binding signal (z-score),[21],0.415
same,glycan array binding signal (z-score),[22],-0.226
same,glycan array binding signal (z-score),[23],-0.528
same,glycan array binding signal (z-score),[24],-0.404
same,glycan array binding signal (z-score),[25],-0.465
same,glycan array binding signal (z-score),[26],0.222
same,glycan array binding signal (z-score),[27],0.091
same,glycan array binding signal (z-score),[28],-0.399
same,glycan array binding signal (z-score),[29],-0.455
same,glycan array binding signal (z-score),[30],0.203
same,glycan array binding signal (z-score),[31],-0.596
same,glycan array binding signal (z-score),[32],-0.266
same,glycan array binding signal (z-score),[33],-0.355
same,glycan array binding signal (z-score),[34],-0.389
same,glycan array binding signal (z-score),[35],-0.194
same,glycan array binding signal (z-score),Neu5Ac(a2-3)Gal(b1-4)Glc,-0.292
same,glycan array binding signal (z-score),[36],-0.463
same,glycan array binding signal (z-score),[37],0.727
same,glycan array binding signal (z-score),[38],-0.392
same,glycan array binding signal (z-score),[39],-0.217
